Read-outs that look alike come from different tables or passages of the source.

Experiment [1] addresses T1, F508del-CFTR (Homo sapiens, UniProt P13569, DEL508-508). As to the kind of experiment: cell-based. To be noted: for Emax: U2OS.
The target of experiment [2] is T2, human F508del-CFTR chloride channel (Homo sapiens, UniProt P13569, DEL508-508). As to the kind of experiment: Combination efficacy experiment: restauration of F508del-CFTR function in recombinant U2OS cell line (YFP quenching assay).
Experiment [3] deals with T2, human F508del-CFTR chloride channel. It is filed as cell-based. Also on record: host or cells: U2OS. The method, then: Final DMSO concentration in the assay is 0.34%. […] The next day, the cell plates are incubated for 2 h at RT in the dark. […] Measured values are expressed as fold-change versus the baseline value (absence of CFTR correctors=vehicle treatment).
(type-I corrector+type-III corrector). […] Error bars represent the standard error of the mean.
Error bars represent the standard error of the mean.

Experiment [4] addresses T1, F508del-CFTR.

In general, EC50 refers to the concentration giving half of the maximal effect. Lower therefore signals an effect from little substance. By Emax is commonly meant the greatest response seen or fitted, relative to the assay's reference. At F508del-CFTR [1], `COc1noc(CCNC(=O)[C@@H]2CC(=O)N(C)[C@@H](CC(C)C)C(=O)N(C)[C@H](CC(F)(F)F)C(=O)N[C@H](Cc3ccccc3)COc3ccc4cnc(C)cc4c3C(=O)N2)n1` [Example 1, (3S,7S,10R,13R)-13-benzyl-7-isobutyl-N-(2-(3-methoxy-1,2,4-oxadiazol-5-yl)ethyl)-6,9,20-trimethyl-1,5,8,11-tetraoxo-10-(2,2,2-trifluoroethyl)-1,2,3,4,5,6,7,8,9,10,11,12,13,14-tetradecahydro-[1]oxa[4,7,10,14]tetraazacycloheptadecino[16,17-f]isoquinoline-3-carboxamide] came in with a half-maximal effective concentration (EC50) of 263 nM and an Emax of 490%.

Regarding `COc1noc(CCNC(=O)[C@@H]2CC(=O)N(C)[C@@H](CC(C)C)C(=O)N(C)[C@H](CC(F)(F)F)C(=O)N[C@H](Cc3ccccc3)COc3ccc4ncc(F)cc4c3C(=O)N2)n1` [Example 3, (3S,7S,10R,13R)-13-benzyl-20-fluoro-7-isobutyl-N-(2-(3-methoxy-1,2,4-oxadiazol-5-yl)ethyl)-6,9-dimethyl-1,5,8,11-tetraoxo-10-(2,2,2-trifluoroethyl)-1,2,3,4,5,6,7,8,9,10,11,12,13,14-tetradecahydro-[1]oxa[4,7,10,14]tetraazacycloheptadecino[16,17-f]quinoline-3-carboxamide], in experiment [2] (400 nM added to basal Corrector 4a (5 uM) and/or navocaftor (50 nM)), the “F508del-CFTR function, YFP quenching (FIG. 4)” value is reported as “enhances F508del-CFTR function on top of all basal treatments”. Also, the “F508del-CFTR function, YFP quenching (FIG. 5)” value in experiment [2] (400 nM added to basal elexacaftor (2 uM) and/or ivacaftor (2 nM)) is “enhances F508del-CFTR function on top of all basal treatments”. In addition, the “F508del-CFTR function, YFP quenching (FIG. 2)” value in experiment [2] (400 nM added to basal galicaftor (1 uM) and/or navocaftor (50 nM)) is given as “enhances F508del-CFTR function on top of all basal treatments”. The “F508del-CFTR function, YFP quenching (FIG. 3)” value in experiment [2] (400 nM added to basal tezacaftor (2 uM) and/or ivacaftor (2 nM)) is listed as “enhances F508del-CFTR function on top of all basal treatments”. On F508del-CFTR [1], this compound returned an EC50 of 146 nM and an Emax of 460%. Moreover, in experiment [3] (200 nM added to basal 2 uM elexacaftor or 5 uM PTI-801, 16 h), the “F508del-CFTR cell surface expression (FIG. 6)” value is recorded as “enhances F508del-CFTR surface expression on top of these basal treatments”. In addition, the “F508del-CFTR cell surface expression (FIG. 1)” value in experiment [3] (200 nM added to basal 2 uM tezacaftor, 0.2 uM galicaftor, 5 uM Corrector 4a, 2 uM elexacaftor or [2 uM tezacaftor+2 uM elexacaftor], 16 h) is given as “enhances F508del-CFTR surface expression on top of all basal treatments”.

On F508del-CFTR [1], `COc1cc(CCNC(=O)[C@@H]2CC(=O)N(C)[C@@H](CC(C)C)C(=O)N(C)[C@H](CC(F)F)C(=O)N[C@H](Cc3ccccc3)COc3ccc4cnc(C)cc4c3C(=O)N2)on1` [Example 26, (3S,7S,10R,13R)-13-benzyl-10-(2,2-difluoroethyl)-7-isobutyl-N-(2-(3-methoxyisoxazol-5-yl)ethyl)-6,9,20-trimethyl-1,5,8,11-tetraoxo-1,2,3,4,5,6,7,8,9,10,11,12,13,14-tetradecahydro-[1]oxa[4,7,10,14]tetraazacycloheptadecino[16,17-f]isoquinoline-3-carboxamide] displayed an EC50 of 275 nM and a maximum response (Emax) of 459%.

Turning to `COc1noc(CCNC(=O)[C@@H]2CC(=O)N(C)[C@@H](CC(C)C)C(=O)N(C)[C@H](CC(F)F)C(=O)N[C@H](Cc3ccccc3)COc3ccc4ncc(F)cc4c3C(=O)N2)n1` [Example 30, (3S,7S,10R,13R)-13-benzyl-10-(2,2-difluoroethyl)-20-fluoro-7-isobutyl-N-(2-(3-methoxy-1,2,4-oxadiazol-5-yl)ethyl)-6,9-dimethyl-1,5,8,11-tetraoxo-1,2,3,4,5,6,7,8,9,10,11,12,13,14-tetradecahydro-[1]oxa[4,7,10,14]tetraazacycloheptadecino[16,17-f]quinoline-3-carboxamide], on F508del-CFTR [1], the EC50 was determined as 273 nM and the Emax is 452%.

In the case of `COc1noc(CCNC(=O)[C@@H]2CC(=O)N(C)[C@@H](CC(C)C)C(=O)N(C)[C@H](CC(F)F)C(=O)N[C@H](Cc3ccccc3)COc3ccc4ncc(F)cc4c3C(=O)N2)c1F` [Example 38, (3S,7S,10R,13R)-13-benzyl-10-(2,2-difluoroethyl)-20-fluoro-N-(2-(4-fluoro-3-methoxyisoxazol-5-yl)ethyl)-7-isobutyl-6,9-dimethyl-1,5,8,11-tetraoxo-1,2,3,4,5,6,7,8,9,10,11,12,13,14-tetradecahydro-[1]oxa[4,7,10,14]tetraazacycloheptadecino[16,17-f]quinoline-3-carboxamide], at F508del-CFTR [1], the EC50 was 67 nM and the Emax amounted to 431%.

Turning to `COc1cc(CCNC(=O)[C@@H]2CC(=O)N(C)[C@@H](CC(C)C)C(=O)N(C)[C@H](CC(F)(F)F)C(=O)N[C@H](Cc3ccccc3)COc3ccc4nc(C)oc4c3C(=O)N2)on1` [Example 42, (8R,11R,14S,18S)-8-benzyl-14-isobutyl-N-(2-(3-methoxyisoxazol-5-yl)ethyl)-2,12,15-trimethyl-10,13,16,20-tetraoxo-11-(2,2,2-trifluoroethyl)-7,8,9,10,11,12,13,14,15,16,17,18,19,20-tetradecahydrooxazolo[4′,5′:5,6]benzo[1,2-p][1]oxa[4,7,10,14]tetraazacycloheptadecine-18-carboxamide], on F508del-CFTR [1], a half-maximal effect (EC50) was put at 601 nM and the Emax is 482%.

Regarding `Cc1nn(C)cc1S(=O)(=O)NC(=O)c1ccc(-n2ccc(OCC(C)(C)C(F)(F)F)n2)nc1N1C[C@@H](C)CC1(C)C` [elexacaftor, N-(1,3-dimethyl-1H-pyrazole-4-sulfonyl)-6-[3-(3,3,3-trifluoro-2,2-dimethylpropoxy)-1H-pyrazol-1-yl]-2-[(4S)-2,2,4-trimethylpyrrolidin-1-yl]pyridine-3-carboxamide], the “F508del-CFTR cell surface expression (FIG. 6), type-III corrector added to type-III corrector” value in experiment [3] (2 uM elexacaftor added to 5 uM PTI-801) was “does not lead to additive effects”.

Regarding “(3S,7S,10R,13R)-13-benzyl-20-fluoro-7-isobutyl-N-(2-(3-methoxyisoxazol-5-yl)ethyl)-6,9,10-trimethyl-1,5,8,11-tetraoxo-1,2,3,4,5,6,7,8,9,10,11,12,13,14-tetradecahydro-[1]oxa[4,7,10,14]tetraazacycloheptadecino[16,17-f]quinoline-3-carboxamide [Example 10]”, the EC50 on F508del-CFTR [4] (U2OS cells, 16 h compound incubation, geomean values) was found to be 156 nM. Also, the Emax at F508del-CFTR [4] (in relation to Emax of lumacaftor = 100%, arithmetic mean values) is on record as 337%.

The values above are taken from patent US20250268979A1, “COMBINATION OF MACROCYCLIC CFTR MODULATORS WITH CFTR CORRECTORS AND / OR CFTR POTENTIATORS” (Idorsia Pharmaceuticals Ltd, priority 2022, published 2025).
